The source of these data is patent US20250269026A1 (CHENGDU KELUN PRECISION BIOTECHNOLOGY, published 2025).

Assay [1] has as its target T1, MSLN on MSLN-positive cells (293T/MSLN+, OVCAR-3, NCI-H596) (human, UniProt Q13421 296-598).
T1 construct: whole, on cells; The construct used in 293T/MSLN+ is not described; also called mesothelin; human MSLN
Nature of the assay: flow cytometry, serially diluted scFv-Fc on OVCAR-3 cells. The text has this:
(§1) In order to identify the binding affinity of MSLN scFv-Fc protein, the MSLN scFv-Fc protein was serially diluted and used to stain the three selected cell lines expressing MSLN, and the cell binding ability was detected by flow cytometry.
Background: A flow cytometer gives signals particle by particle.

Assay [2] addresses T1, MSLN on MSLN-positive cells …. Nature of the assay: flow cytometry, serially diluted scFv-Fc on NCI-H596 cells.
Excerpt: as §1

For assay [3] the target is unchanged. Description: flow cytometry, serially diluted scFv-Fc on 293T/MSLN+ cells.
Excerpt: as §1

T1 sequence (Q13421 other isoform, or with tags, fused parts or gaps limits assumed): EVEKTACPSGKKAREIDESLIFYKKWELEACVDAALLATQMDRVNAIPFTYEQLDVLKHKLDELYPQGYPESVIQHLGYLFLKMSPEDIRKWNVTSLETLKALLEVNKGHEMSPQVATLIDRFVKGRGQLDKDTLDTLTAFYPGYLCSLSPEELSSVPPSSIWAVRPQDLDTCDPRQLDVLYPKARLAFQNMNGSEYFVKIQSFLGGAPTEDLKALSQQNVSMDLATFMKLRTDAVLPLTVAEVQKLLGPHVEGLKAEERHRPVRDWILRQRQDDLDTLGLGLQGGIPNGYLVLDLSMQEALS

B1: G16 scFv-Fc (Fc fusion)
chain: QVQLVQSGAEVTKPGASVKVSCRASGYPFSNFFMNWVRQAPGQGLEWMGIINPIGGSTTYAQKFQGRVTMTRDTSTDTVYMELSSLRSDDTAVYYCARSSSHLGAFDIWGQGTMVTVSSASGGGGSGGRASGGGGSDIQLTQSPSSVSASVGDRVTITCRASQSISTWVAWYQHKPGVAPKLLIYASPTLQSGVPSRFSGSGSGTDFTLTISSLQSEDFATYYCQQAHSFPITFGQGTRLEIKRP[sequence of human IgG1 Fc with changes omitted]
notes: no linker between the two is stated; also called anti-MSLN antibody G16; MSLN scFv-Fc protein
For B1, the EC50 (commonly the midpoint of the concentration-response curve) in assay [1] turned out to be 4.92 nM; in assay [2], 2.25 nM; in assay [3], 1.58 nM.
